Tests used:
clinical = settings: both, human, in vivo, po, 400 mg; for AUC: AUC0-τ; for AUC(0-inf): AUC0-∞
[1] = both, human, in vivo, po, 400 mg

SMILES | AUC (clinical; Geometric Mean) [ng·h/mL] | AUC (clinical; Median) [ng·h/mL] | AUC(0-inf) (clinical; Geometric Mean) [ng·h/mL] | AUC(0-inf) (clinical; Median) [ng·h/mL] | Cmax (clinical; Cmax, Geometric Mean) [ng/mL] | Tmax (clinical; Tmax, Geometric Mean) [h] | half-life (clinical; t1/2, Geometric Mean) [h] | AUC(extrap), Geometric Mean [1] [%] | AUC(extrap), Mean [1] [%] | AUC(extrap), Median [1] [%] | AUC0-τ, Geometric Mean [1] [ng·h/mL] | AUC0-τ, Median [1] [ng·h/mL] | AUC0-∞, Geometric Mean [1] [ng·h/mL] | AUC0-∞, Median [1] [ng·h/mL] | Cmax, Geometric Mean [1] [ng/mL] | Tmax, Geometric Mean [1] [h] | t1/2, Geometric Mean [1] [h]
O=C(NN1C(=O)C2C3C=CC(C4CC34)C2C1=O)c1ccc(C(F)(F)F)cc1 (single isomer, unassigned) [Form I, 4-trifluoromethyl-N-(3,3a,4,4a,5,5a,6,6a-octahydro-1,3-dioxo-4,6-ethenocycloprop[f]isoindol-2(1H)-yl)-benzamide] | 14800 | 14200 | 19000 | 17200 | 1030 | 3.5 | 24.7 | 15.748 | 17.444 | 13.214 |  |  |  |  |  |  | 
O=C(NN1C(=O)C2C3C=CC(C4CC34)C2C1=O)c1ccc(C(F)(F)F)cc1 (single isomer, unassigned) [Form V, 4-trifluoromethyl-N-(3,3a,4,4a,5,5a,6,6a-octahydro-1,3-dioxo-4,6-ethenocycloprop[f]isoindol-2(1H)-yl)-benzamide] |  |  |  |  |  |  |  | 12.369 | 15.275 | 12.465 | 19020.83 | 19398.5 | 20409.17 | 19465.47 | 1185 | 3.6 | 23.083
